The supplement of paper PMC3334620
Whole data set: some 33,000 sequences, median “E-score (-0.5 to 0.5)” near -0.01, cut for the highest 2% near 0.26. Some of the results follow.

molecular target: Ste12 (UniProt P13574); experiment: PBM E-score (8-mer binding enrichment) (E-score (-0.5 to 0.5)); higher = stronger / more preferred TF binding; most listed sequences are background and not binding sites; conditions: protein concentration: 200 nM; construct: GST-DNA-binding domain
In short: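 Each ungapped eight-base word and its reverse complement, pooled, received an E-score from the Universal PBM Analysis Suite. Underlying scans, normalised with masliner, recorded fluorescent anti-GST bound to GST-tagged yeast transcription factors. These were applied at about 100-200 nM to universal all-10-mer Agilent arrays double-stranded by primer extension.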

In order of rising “PBM E-score” value:
1. AGGAGGAC  -0.381
2. CAAGGCTC  -0.348
3. GCGTCCAC  -0.322
4. CCGTGAGC  -0.281
5. AGGCATCA  -0.261
6. GGGCCCCC  -0.236
7. CGCCGACC  -0.229
8. AGGTCTGG  -0.228
9. ACAGTCCG  -0.226
10. AGCACCCC  -0.222
11. CTGGCTGA  -0.22
12. AATCCGTA  -0.215
13. AGGCTAAC  -0.212
14. GCACCCTA  -0.209
15. GCTTGGAC  -0.208
16. CCCAGCGG  -0.192
17. CACCAGTA  -0.19
18. GCTGGCGA  -0.183
19. AGCTAGGG  -0.182
20. CGCCAGCA  -0.175
21. GAGAGCTC  -0.175
22. CTACGGCA  -0.173
23. AATGCCAG  -0.169
24. CGGCGAGA  -0.167
25. CCGCTAGA  -0.165
26. GGGACTGA  -0.163
27. CCACAGTC  -0.163
28. ACTATCGC  -0.162
29. AGAAGAGC  -0.161
30. ACTACGCG  -0.159
31. CTCCAGAA  -0.152
32. CGGCGGTC  -0.149
33. GGTTATAC  -0.145
34. CAGTGGAC  -0.142
35. AGCGTACG  -0.142
36. AACTGACC  -0.142
37. CTAGGGAG  -0.136
38. TAGTCGAA  -0.134
39. CCCATGTC  -0.133
40. CACGGGAC  -0.133
41. ACCCTATG  -0.126
42. ACTCTCGA  -0.123
43. ATGCCACC  -0.123
44. CTATACAG  -0.121
45. AGGGTCAT  -0.12
46. AGTAGGAG  -0.119
47. AGTTCTTA  -0.116
48. ATGGGGCA  -0.116
49. GCATGGCC  -0.114
50. CTGGGGGA  -0.112
51. AACCGGCT  -0.112
52. CACGTCTA  -0.108
53. AAGGCCCT  -0.108
54. GCCCAAGC  -0.106
55. CTGGATGA  -0.103
56. CTCCCTTA  -0.103
57. GAACTGGC  -0.102
58. ACTAGTGA  -0.101
59. TAGTAAGA  -0.0976
60. CCATCCTA  -0.0973
61. CGTATAAC  -0.0972
62. ATGCCTCA  -0.0959
63. GCAGTGGC  -0.0925
64. CGCACGAG  -0.0916
65. CTGTAGGC  -0.0889
66. TATATGCA  -0.0848
67. GCAGCCGC  -0.0789
68. GCCTTCCC  -0.0772
69. ACCGTTCC  -0.0772
70. GCTGGGAC  -0.0751
71. ATCAGTTC  -0.075
72. GACATACC  -0.0747
73. ACGCCCAG  -0.0708
74. GTAACTGA  -0.0708
75. GTAGTAGA  -0.0701
76. AGAGACGA  -0.0683
77. CCGTAAGA  -0.0646
78. CAGTGTCC  -0.0612
79. AAGTGCCA  -0.0606
80. CAACACCC  -0.0603
81. CGGAGCAG  -0.0602
82. ATCACTTA  -0.0583
83. ATAGCTTG  -0.0583
84. TCGTACGA  -0.0577
85. AGTAGCGC  -0.0571
86. CTCGGGGA  -0.0552
87. AGACCACA  -0.0546
88. CAGCCCAC  -0.0539
89. AACAGTCC  -0.0507
90. ATACTGCC  -0.049
91. GTGTTGTA  -0.0484
92. GGTCGCCA  -0.046
93. CGAACACC  -0.0456
94. ACGCTGAT  -0.042
95. TCAACCGA  -0.0418
96. AGATCGCA  -0.0394
97. AACGTCGT  -0.038
98. ACACGATA  -0.0375
99. GGCTCTGA  -0.0372
100. ACGGACCT  -0.0369
101. CTAGAACA  -0.0367
102. AATCGGTA  -0.0358
103. CCGGCCAA  -0.0341
104. AACCACGG  -0.0322
105. GTCGTTCA  -0.031
106. ACACTCGG  -0.0306
107. CGATCGTC  -0.0299
108. ATGCGTAG  -0.0251
109. AGTACGAA  -0.0201
110. GTATGAAC  -0.018
111. AGGTAGGA  -0.0176
112. AGATCCAG  -0.0172
113. CAGCGTAA  -0.016
114. CAGTATGG  -0.016
115. AACCAACC  -0.0148
116. ATTGGGCC  -0.0142
117. GTGTAGTA  -0.0104
118. CATAGTTC  -0.00999
119. TAGAATCA  -0.00673
120. CTCAAAGC  -0.00428
121. CAATGGGG  -0.00218
122. ACCTTAGC  -0.00188
123. ACAGGTCG  -0.00175
124. ATACACTG  -0.00096
125. CGCGAGCG  0.00505
126. TGGTCCAA  0.0063
127. AATCGCGT  0.00814
128. TCACCTAA  0.00859
129. CGTATTAA  0.00972
130. CTGTGTTA  0.00985
131. CTCCACTA  0.0109
132. CACTGCTC  0.0119
133. CGGGCCAC  0.0179
134. CGAAGAGA  0.0185
135. ATAGGGGC  0.02
136. ATTATCCA  0.0202
137. GACCTAAA  0.0227
138. ATGAGAAT  0.023
139. ACGGCGTC  0.0249
140. TCTCATCA  0.0267
141. AATTGTGG  0.0282
142. GTTGTGGA  0.0284
143. AACAAGTC  0.0306
144. ATTATAGC  0.0322
145. CCTCACTC  0.0329
146. CGAGCATA  0.0338
147. GGACATAA  0.0357
148. CCGAATCG  0.0364
149. AGTTGGAA  0.0446
150. CACGTTAC  0.0456
151. AGGAAGCG  0.0486
152. CCTGCATC  0.0487
153. CTTACTTA  0.0504
154. GGATGCAA  0.0505
155. CTCGCCCC  0.0507
156. GGCGGGCA  0.0526
157. GAAAGCAA  0.0527
158. TGAGCGAA  0.0547
159. CATTCGCA  0.0612
160. CATTTCCA  0.0625
161. AAGACATA  0.0632
162. CTACACTA  0.0659
163. GTGAGTTA  0.0664
164. GTCAGGAA  0.0687
165. CCACCTTA  0.0736
166. ATTAACCC  0.0736
167. AAGACACT  0.0756
168. CAACAACA  0.0763
169. ATATAATC  0.0782
170. CCGCTCTA  0.0783
171. CCCACCAA  0.0792
172. AATTATGT  0.0801
173. GAATGTGA  0.0826
174. AATGAGCG  0.0838
175. AGTGATGA  0.0858
176. ACGATACT  0.0867
177. AGTCGCAA  0.0889
178. GGAGATCA  0.0915
179. CTACATAC  0.0943
180. CGAAAAAC  0.0959
181. TCAGATAA  0.0963
182. CGGTGCGC  0.106
183. CTCGCAAG  0.107
184. CGATATCC  0.111
185. CATTACAA  0.127
186. ATAGTTAC  0.128
187. AATCTTTC  0.13
188. CCGCCGAA  0.13
189. GTAAAATA  0.131
190. AATTGGTG  0.137
191. ATATACCC  0.142
192. GCGGGGCC  0.144
193. ACCCAGGC  0.145
194. AATCACTG  0.146
195. GGTTTCTA  0.147
196. AGAAAGCT  0.148
197. AAACTGGA  0.158
198. AGAAGGTG  0.159
199. CGCGGGAA  0.161
200. AATGCGAC  0.161
201. CTAAATTA  0.163
202. CGGCATTA  0.165
203. GATTTAAC  0.168
204. GGTGTAAA  0.17
205. AAACGTCG  0.173
206. CCCGTCCC  0.195
207. CAACTGAA  0.201
208. GGGGTAAA  0.202
209. AAAACTTG  0.203
210. AACCCCGA  0.209
211. GTGGGGCA  0.22
212. CCGCACCC  0.222
213. ACATCTAT  0.222
214. ATAATAAG  0.225
215. AGTATTAA  0.242
216. ATTAATCG  0.273
217. AAACATAT  0.273
218. ATTAATAG  0.283
219. GCTTAAAA  0.31
